Data from PubChem BioAssay AID624417 (National Center for Advancing Translational Sciences (NCATS), 2012).
In all, about 410,000 compounds went through this assay and about 6,400 (1.6%) were called active. The inconclusive results got no clear call from the source; some entries with a clear call stand among them for comparison. Calls follow the shape of the dose curve; as a rule, active = well fitted inhibition curve with a large enough effect; inconclusive = small, poorly fitted or top-dose-only effect; inactive = no such curve, though single readings can be large or run the other way. No potency is given beside an inconclusive call; the fits are too rough.

Each compound was assayed against Glucagon-like peptide 1 receptor (Homo sapiens) (UniProt P43220) (assay: qHTS of GLP-1 Receptor Inverse Agonists (Inhibition Mode)). Conditions: HEK293 GLP-1R CRE-luciferase, luminescence, 24 h, GLP-1R form is constitutively active; activity change, negative = inhibition: at 38.3 µM (top of the series) unless noted.
In short: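 Using stably transfected HEK293 (constitutively active GLP-1R, cAMP-luciferase reporter), compounds were incubated 24 hr and luciferase measured by luminescence.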
% is scaled to controls: 0 for no effect and ±100 for the full control effect; potency is read from the fitted curve at half-maximal effect; tags tell the direction and shape of the fitted curve.
Also: nearly all actives have a fitted effect of over 55% in size.

Sequence of UniProt P43220 (P43220 whole entry, looked up): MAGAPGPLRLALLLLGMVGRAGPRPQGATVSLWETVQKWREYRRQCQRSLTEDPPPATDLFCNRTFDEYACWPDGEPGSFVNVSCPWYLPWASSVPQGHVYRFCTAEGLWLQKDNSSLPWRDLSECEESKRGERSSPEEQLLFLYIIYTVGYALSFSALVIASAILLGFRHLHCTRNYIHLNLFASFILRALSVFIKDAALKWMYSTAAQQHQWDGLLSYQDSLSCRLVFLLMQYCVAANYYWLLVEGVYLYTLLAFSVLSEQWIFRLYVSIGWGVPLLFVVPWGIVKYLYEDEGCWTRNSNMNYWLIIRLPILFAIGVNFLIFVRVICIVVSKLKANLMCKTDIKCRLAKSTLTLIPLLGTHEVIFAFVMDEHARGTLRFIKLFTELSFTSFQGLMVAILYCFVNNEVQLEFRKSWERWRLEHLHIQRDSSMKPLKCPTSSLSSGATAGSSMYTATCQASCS

SMILES	Potency	activity change, negative = inhibition
CNC(=S)N(C)/N=C1/C(=O)N(Cc2c(Cl)cccc2Cl)c2ccccc21	inconclusive [inhibitor, single point]	–
Cc1ccc(NC2CCCN(C(=O)c3ccc(F)cc3)C2)cc1C (stereo not given)	inconclusive [inhibitor, partial curve, poor fit]	–
CN1CCN(c2ccc([N+](=O)[O-])cc2S(=O)(=O)N2CCOCC2)CC1	–	inactive: 10.5%
CCOc1ccc(NC(=O)CCC(=O)N2CC(C)Oc3ccc(C)cc32)cc1 (stereo not given)	inconclusive [inhibitor, single point]	–
O=S(=O)(c1ccc(Br)s1)N1CCN(Cc2ccc3c(c2)OCO3)CC1	inconclusive [inhibitor, single point]	–
CCOc1cc(/C=C2/SC(=S)N(Cc3ccccc3)C2=O)ccc1O	inconclusive [inhibitor, single point]	–
CCc1cc(C(=O)N2CCc3c([nH]c4ccccc34)C2c2ccc(OC)cc2F)no1 (stereo not given)	inconclusive [inhibitor, partial curve, poor fit]	–
O=C1OC[C@H](Cc2ccc3c(c2)OCO3)/C1=C\c1ccc2c(c1)OCO2	inconclusive [inhibitor, single point]	–
CCCC1=[N+](CC(=O)c2ccc(C)cc2)CCn2cccc21	inconclusive [inhibitor, single point]	–
C[C@H](CO)N1C[C@H](C)[C@H](CN(C)Cc2ccncc2)Oc2ccc(NC(=O)Nc3ccc(C(F)(F)F)cc3)cc2CC1=O	inconclusive [inhibitor, partial curve, poor fit]	–
Cc1ccc2oc(-c3cccc(NC(=S)NC(=O)/C=C/c4ccco4)c3)nc2c1	inconclusive [inhibitor, partial curve, poor fit]	–
NC(N)=NS(=O)(=O)c1ccc(NC(=S)NC(=O)/C=C/c2ccc(F)cc2)cc1	–	inactive: -8%
O=C(CCC(=O)N1CC2CCCN2c2ccccc21)NCc1cccc(Cl)c1 (stereo not given)	inconclusive [inhibitor, single point]	–
Cc1csc(-c2cc(C(=O)NCc3cc(C(F)(F)F)cc(C(F)(F)F)c3)n[nH]2)c1	inconclusive [inhibitor, partial curve, poor fit]	–
COc1ccc2c(c1)CCCN2C(N)=Nc1ccc(Cl)cc1	inconclusive [inhibitor, partial curve, poor fit]	–
O=C(Nc1ccc(F)cc1)c1cccnc1NCCc1ccccc1	inconclusive [inhibitor, single point]	–
CN(C)C(=O)c1cccc(-c2cccc(-c3nc(C(=O)NCc4ccccc4)cc4c3[C@H](CCO)N(S(=O)C(C)(C)C)C4)c2)c1 (stereo not given in full)	–	inactive: 40.1%
CC1(C)CC(CC(=O)NC(=S)Nc2ccc([N+](=O)[O-])cc2)C(=O)O1 (stereo not given)	–	inactive: -22.6%
CCN(CC)C(=O)CSc1nc(C)cc(-c2cccs2)c1C#N	–	inactive: 40.3%
O=C(Nc1ccc(F)cc1F)C(Cc1ccccc1)N1Cc2ccccc2C1=O (stereo not given)	inconclusive [inhibitor, single point]	–

SMILES	Potency	activity change, negative = inhibition
C#CCOCCOCCOCCNc1nc(N2CCN(C(=O)C([C@@H](C)O)n3cc([C@@H](N)CCCCN)nn3)CC2)nc(N2CCN(C(=O)[C@H](CC(N)=O)n3cc(C(N)[C@@H](C)CC)nn3)CC2)n1 (stereo not given in full)	–	inactive: 15.4%
O=C(O)CCCn1c(=O)[nH]c2ccccc2c1=O	inconclusive [inhibitor, single point]	–
CC1=CC(C)(C)NC(=S)N1c1cccc2ccccc12	inconclusive [inhibitor, partial curve, poor fit]	–
CSc1ccccc1C(=O)N1CCN(c2cccc(Cl)c2)CC1	inconclusive [inhibitor, partial curve, poor fit]	–
COc1ccc2oc(C(=O)NCCc3ccccc3)c(C)c2c1	inconclusive [inhibitor, single point]	–
COc1ccc(C(=O)N2CC3(C)CC2CC(C)(C)C3)cc1OC (stereo not given)	inconclusive [inhibitor, partial curve, poor fit]	–
CCOc1ccc(C2c3[nH]c4ccccc4c3CCN2Cc2cn(CC)nc2C)cc1 (stereo not given)	inconclusive [inhibitor, single point]	–
COc1ccc(CNC(=O)CN(Cc2ccc(Cl)cc2)S(=O)(=O)c2ccccc2)cc1	inconclusive [inhibitor, partial curve]	–
Cc1cccc(N2CCN(C(=O)c3cccc(N4CCCC4=O)c3)C(C)C2)c1 (stereo not given)	inconclusive [inhibitor, full curve, poor fit]	–
CCC(COC(=O)Nc1cccc(C)c1)NC(=O)OCC(C)C (stereo not given)	–	inactive: 0%
Cc1nc2ccccc2c(=O)n1-c1ccc(NC(=O)c2cccc([N+](=O)[O-])c2)cc1	–	inactive: -25.1%
O=C(Nc1ccon1)c1cc(-c2ccccc2)nc2ccccc12	inconclusive [inhibitor, partial curve, poor fit]	–
CSc1ccccc1NC(=O)CN(C)CC(=O)c1c(C)[nH]c2ccccc12	inconclusive [inhibitor, single point]	–
Cc1cccc(OCC(=O)N2CCN(C(=O)COc3ccc(Cl)cc3)CC2)c1	inconclusive [inhibitor, partial curve]	–
COc1ccc(C(=O)Nc2ccc(N3CCN(C(=O)c4cccs4)CC3)cc2)cc1Br	inconclusive [inhibitor, partial curve]	–
CCOC(=O)[C@]12CCCC=C1N(CCC1=CCCCC1)C(=O)[C@H](CC(=O)NCc1cccc(C(F)(F)F)c1)C2	inconclusive [inhibitor, partial curve, poor fit]	–
Cc1ccc(OCC(=O)N/N=C/c2c[nH]c3ccccc23)c([N+](=O)[O-])c1	inconclusive [inhibitor, partial curve, poor fit]	–
CCC(C)(C)NC(=O)C(c1ccccc1F)N(Cc1ccco1)C(=O)c1csnn1 (stereo not given)	inconclusive [inhibitor, single point]	–
COc1ccc(/C=C2\CCCC3C2=NN(C(=O)CSc2n[nH]c(N)n2)C3c2ccc(OC)cc2)cc1 (stereo not given)	inconclusive [inhibitor, single point]	–
O=C(NCc1ccccc1)C(C1CC1)n1c(=O)c(-c2cc3ccccc3[nH]2)nc2ccccc21 (stereo not given)	inconclusive [inhibitor, partial curve, poor fit]	–

SMILES	Potency	activity change, negative = inhibition
Cc1cc(C)c(OCC(=O)N(Cc2ccco2)Cc2ccco2)c(C)c1	inconclusive [inhibitor, single point]	–
O=C(CSc1cccs1)Nc1ccc(Cl)cc1	inconclusive [inhibitor, single point]	–
Cc1ccc(C)c(NC(=O)c2cc(S(=O)(=O)N3CCCc4ccccc43)ccc2F)c1	inconclusive [inhibitor, partial curve, poor fit]	–
CC(NC(=O)Nc1nccs1)(C(F)(F)F)C(F)(F)F	inconclusive [inhibitor, partial curve, poor fit]	–
CCC1CN(C(=O)NCc2ccc(C)cc2)c2ccccc2O1 (stereo not given)	inconclusive [inhibitor, single point]	–
OCCNc1nc(NCc2ccccc2)c2ccccc2n1	inconclusive [inhibitor, single point]	–
Cn1cc(S(=O)(=O)N2CCCC2)cc1C(=O)NCc1ccc(Cl)cc1	inconclusive [inhibitor, partial curve, poor fit]	–
CCc1ccc(/C=N/NC(=O)c2cc(-c3cccc([N+](=O)[O-])c3)n[nH]2)cc1	inconclusive [inhibitor, partial curve, poor fit]	–
COCCCn1c(SCC(=O)OC2CCCCC2)nnc1-c1cccs1	–	inactive: -8.21%
COC(=O)c1c(N)n(CCCN2CCOCC2)c2nc3ccccc3nc12	–	inactive: 34.5%
Cc1ccc(-n2c(Cc3cccn3C)nnc2SCC(=O)Nc2ccc3c(c2)OCO3)cc1	–	inactive: 3.46%
O=C(COc1cccc(C(F)(F)F)c1)NCC(c1ccco1)N1CCCCC1 (stereo not given)	inconclusive [inhibitor, partial curve, poor fit]	–
COC(=O)Cc1ccc(NC(=S)N2CCC(Cc3ccccc3)CC2)cc1	inconclusive [inhibitor, partial curve, poor fit]	–
CCOC(=O)N1CCN(C(=O)c2ccc(CSc3ccc(Cl)cc3)cc2)CC1	inconclusive [inhibitor, single point]	–
Fc1ccccc1COc1ccc(Br)cc1CNCc1cccnc1	inconclusive [inhibitor, single point]	–
COc1cc(CNCCCN2CCOCC2)c(Br)cc1OCC(=O)Nc1ccccc1C	inconclusive [inhibitor, single point]	–
O=C(c1ccc(F)cc1)N1CCCC(N2CCN(Cc3ccc4c(c3)OCO4)CC2)C1 (stereo not given)	inconclusive [inhibitor, partial curve, poor fit]	–
COc1ccc(NCC(=O)N/N=C(\C)c2cc3ccccc3o2)cc1	inconclusive [inhibitor, full curve, poor fit]	–
Cc1ccc(C(=O)O)cc1N=Cc1cc(Br)cc(Br)c1O	inconclusive [inhibitor, partial curve, poor fit]	–
Cc1cc(NC(=O)c2cccc(C(=O)Nc3cc(C)on3)n2)no1	inconclusive [inhibitor, full curve, poor fit]	–
